Each structure is given as a SMILES string. About 200 (0.47%) of roughly 43,000 compounds were called active. Roughly 12% stayed inconclusive and do not appear here. Calls come from the whole dose curve; as a rule, active = well fitted cell-killing curve with a large enough effect; inconclusive = small, poorly fitted or top-dose-only effect, or effect the other way; inactive = flat fitted curve, though single readings scatter. The list shows a part of the results.
% is set by controls: 0 for no effect and ±100 for the full control effect.

The assay is described as follows: Cell viability qHTS assay in S16 Pmp22-F2sN cells. Note: nearly all actives have a fitted effect of over 65% in size. As to conditions: S16 Pmp22-F2sN Schwann cells viability, CellTiter-Glo, 24 h; series mostly up to 57.5 µM; activity change, negative = cytotoxicity: at the top concentration. The method, boiled down:
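Used to flag compounds lowering reporter output through toxicity, this quantitative HTS measures ATP-based CellTiter-Glo luminescence in S16 Pmp22-F2sN Schwann cells after 24 h compound exposure at 37C.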
In general terms: qHTS replaces the single test concentration by a dilution series.
Turning to `CCOC(=O)c1ccc(N2C(=O)c3n[nH]c(C)c3C2c2ccc(CC)cc2)cc1` (configuration not stated), the “activity change, negative = cytotoxicity” value is inactive: 25.4%.

Take `CCc1ccccc1NC(=O)Cn1nc(C)c2nn(-c3ccc(Cl)cc3)c(C)c2c1=O`: the “activity change, negative = cytotoxicity” value was inactive: -1.17%.

On to `CCOCCCNC(=O)CN1C(=O)CCn2nc(-c3cccn3C)cc21`, for which the “activity change, negative = cytotoxicity” value is inactive: 1.74%.

In the case of `CCCCN(CC)CCCNC(=O)c1nn(-c2ccc(OC)cc2)c(=O)c2c1c1ccccc1n2C`, the “activity change, negative = cytotoxicity” value is inactive: 26.7%.

With `O=C(Nc1ncc(Cc2ccccc2Cl)s1)c1ccc2c(c1)CC(c1ccccc1)OC2=O` (configuration not stated), the “activity change, negative = cytotoxicity” value is inactive: 9.76%.

With `CNC(=O)C1CCC(Cn2c(=O)c3sccc3n(CC(=O)Nc3ccccc3)c2=O)CC1` (configuration not stated), the “activity change, negative = cytotoxicity” value is inactive: -24.5%.

In the case of `CC1CCc2nc3ncn(Cc4cccc(F)c4)c(=O)c3cc2C1` (configuration not stated), the “activity change, negative = cytotoxicity” value is inactive: -1.69%.

For the molecule `Cc1ccc(NC(=O)Cn2c(=O)n(CC(=O)NCCc3ccccc3)c(=O)c3ccccc32)cc1`, the “activity change, negative = cytotoxicity” value was inactive: 23.3%.

In the case of `CCc1ccccc1NC(=O)Cn1nnc(C(=O)NCc2cccc(OC)c2)c1N`, the “activity change, negative = cytotoxicity” value was inactive: -19.1%.

Consider `COc1ccc(CC(=O)Nc2nnc3n2CCS3)cc1OC`, for which the “activity change, negative = cytotoxicity” value is inactive: -24%.

`COc1ccc(CNC(=O)CCc2c(C)nc3c4cccnc4nn3c2C)cc1`: the “activity change, negative = cytotoxicity” value is inactive: 11.4%.

On to `COCCNC(=O)c1cc(-c2cccc(Cl)c2)on1`, for which the “activity change, negative = cytotoxicity” value was inactive: 1.67%.

Consider `CCCCN(CC)CCCNC(=O)c1sc2nc3n(c(=O)c2c1C)CCCCC3`, for which the “activity change, negative = cytotoxicity” value was inactive: 4.27%.

In the case of `Cc1ccc(CCNC(=O)CCCn2c(=O)c3cccn3c3ccc(F)cc32)cc1`, the “activity change, negative = cytotoxicity” value is inactive: -8.95%.

For `COc1ccc(OC)c(NC(=O)N2CCC3(CC2)Oc2ccccc2C(=O)N3Cc2ccccc2F)c1`, the “activity change, negative = cytotoxicity” value is inactive: -4.23%.

Take `CCCCN(C)C(=O)c1ccc2c(c1)NC(=O)C(CC(C)C)N2` (configuration not stated): the “activity change, negative = cytotoxicity” value is inactive: 0.272%.

`CCN1C(=O)C2(c3ccccc31)c1c(oc3ccccc3c1=O)C(=O)N2CCOC` (configuration not stated): the “activity change, negative = cytotoxicity” value was inactive: 15.9%.

`CCn1c(=O)c2sccc2n2c(CCCC(=O)Nc3ccc(Oc4ccccc4)cc3)nnc12`: the “activity change, negative = cytotoxicity” value is inactive: 26.6%.

`CCOc1ccccc1CNC(=O)CN1C(=O)c2cccnc2Oc2ccc(C)cc21`: the “activity change, negative = cytotoxicity” value was inactive: 3.82%.

With `O=C(Nc1ccc(Br)cc1)c1cc(S(=O)(=O)N2CCc3ccccc32)ccc1F`, the “activity change, negative = cytotoxicity” value is inactive: -20.3%.

Turning to `Cc1ccc(-c2nc(-c3cccs3)c(-c3cccs3)[nH]2)cc1`, the “activity change, negative = cytotoxicity” value was inactive: 2.54%.

With `Cc1ccc(OCCSc2nc3ccccc3n2CCC(=O)O)cc1`, the “activity change, negative = cytotoxicity” value is inactive: 2.87%.

`CN(Cc1ccccc1)c1nc2c(S(=O)(=O)c3ccccc3)nnn2c2ccsc12`: the “activity change, negative = cytotoxicity” value is inactive: 17.8%.

On to `Cc1c(C(=O)Nc2ccccc2F)sc2nc3n(c(=O)c12)CCC3`, for which the “activity change, negative = cytotoxicity” value is inactive: -2.47%.

As to `Cc1cc(C)cc(OCC(=O)N(Cc2ccco2)Cc2ccccc2Cl)c1`, the “activity change, negative = cytotoxicity” value is inactive: -10.5%.

Take `Cc1ccc(NC(=O)c2nc(S(C)(=O)=O)ncc2N(Cc2ccco2)Cc2ccco2)cc1`: the “activity change, negative = cytotoxicity” value is inactive: -4.81%.

In the case of `O=C(Nc1ccccc1)c1ccc(Cl)c(S(=O)(=O)Nc2ccccc2)c1`, the “activity change, negative = cytotoxicity” value is inactive: -7.94%.

As to `Cc1ccc(C(=O)c2cn(Cc3ccccc3)c3c(F)cc(F)cc3c2=O)cc1`, the “activity change, negative = cytotoxicity” value was inactive: -4.52%.

Take `CCS(=O)(=O)N1CCC2(CC1)OC(=O)C(C)=C2C(=O)NCc1ccc(OC)c(OC)c1`: the “activity change, negative = cytotoxicity” value was inactive: -5.52%.

On to `CCOc1ccccc1CNC(=O)CN1C(=O)c2cccnc2Oc2ccc(Cl)cc21`, for which the “activity change, negative = cytotoxicity” value is inactive: -17.4%.

In the case of `COc1ccc(S(=O)(=O)N2CCCCC2)cc1C(=O)NC1CCS(=O)(=O)C1` (configuration not stated), the “activity change, negative = cytotoxicity” value was inactive: -6.71%.

In the case of `Cn1c(=O)c(=O)n(C)c2cc(N3CCCC3)c(NC(=O)c3ccccc3Cl)cc21`, the “activity change, negative = cytotoxicity” value is inactive: 3.03%.

For the molecule `COc1ccc(N2CCN(C(=O)c3cn(C)c4ccc(S(=O)(=O)N5CCOCC5)cc4c3=O)CC2)cc1`, the “activity change, negative = cytotoxicity” value was inactive: -2.19%.

`Cc1cc(Nc2cccc(Cl)c2)nc2ccc(NC(=O)Cc3c(F)cccc3Cl)cc12`: the “activity change, negative = cytotoxicity” value was inactive: -0.999%.

For the molecule `CCC1Oc2ccccc2N(CC(=O)NCc2ccccc2)C1=O` (configuration not stated), the “activity change, negative = cytotoxicity” value is inactive: 16.3%.

For `Cc1cc2oc(C(=O)Nc3sc4c(c3C(=O)NCC3CCCO3)CCCC4)cc(=O)c2cc1C` (configuration not stated), the “activity change, negative = cytotoxicity” value was inactive: 1.49%.

On to `CCS(=O)(=O)N1CCc2cc(C(=O)Nc3cc(C)cc(C)c3)ccc21`, for which the “activity change, negative = cytotoxicity” value is inactive: 18.1%.

In the case of `COC(=O)c1ccc2c(c1)N(CC(=O)Nc1ccc(C)c(C)c1)C(=O)c1ccccc1S2`, the “activity change, negative = cytotoxicity” value was inactive: 17%.

Turning to `Cc1ccc(C)c(N2CCN(C(=O)NCc3noc4ccccc34)CC2)c1`, the “activity change, negative = cytotoxicity” value was inactive: 1.51%.

As to `COc1ccc(OC)c(CCNc2nc3cc(OC)c(OC)cc3c3nc(-c4cccnc4)nn23)c1`, the “activity change, negative = cytotoxicity” value is inactive: 2.36%.

On to `CCCCN(CC)CCNC(=O)CN1C(=O)COc2ccc(S(=O)(=O)N3CCOCC3)cc21`, for which the “activity change, negative = cytotoxicity” value is inactive: -0.169%.

With `COc1ccc(CCNC(=O)c2ccc3[nH]c(C)c(C)c3c2)cc1OC`, the “activity change, negative = cytotoxicity” value was inactive: 2.01%.

Turning to `Cn1c(=O)c2c(-c3ccc(Cl)cc3)ccnc2n(C)c1=O`, the “activity change, negative = cytotoxicity” value is inactive: 17.6%.

`CCN(CC)c1ccc(NC(=O)C(NS(=O)(=O)c2cccs2)C(C)C)c(C)c1` (configuration not stated): the “activity change, negative = cytotoxicity” value was inactive: 7.68%.

As for `O=C(OCc1ccccc1F)c1ccc(-c2nnn(Cc3ccccc3)n2)cc1`, the “activity change, negative = cytotoxicity” value is inactive: 2.55%.

Regarding `O=C(Cc1ccccc1)NC1CC(=O)N(c2ccc3c(c2)OCCO3)C1` (configuration not stated), the “activity change, negative = cytotoxicity” value was inactive: 12.2%.

As to `Cc1cc2c(cc1S(=O)(=O)CCC(=O)NCc1ccccc1)OCC(=O)N2`, the “activity change, negative = cytotoxicity” value was inactive: 0.529%.

These data come from PubChem BioAssay AID1508642 (National Center for Advancing Translational Sciences (NCATS), 2021).
